From the supplement of paper PMC4604168 (melanoma cell lines) come the findings set out here.

Some test systems named below: WM115; WM1716; WM1745; WM3526; WM3619; WM451Lu.
Holding throughout (assay): cell count relative to DMSO control; melanoma cells; higher = more viable cells
What all share (conditions): library dose: low library concentration; 72 h

This is one part of the list. Most values come without repeats; read them as rough.
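Further: cell number obtained by counting DAPI-stained nuclei in high-throughput microscope images with image analysis software, screen run in 1,536-well plates.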

Consider `Cc1cc(Nc2cc(N3CCN(C)CC3)nc(/C=C/c3ccccc3)n2)n[nH]1` + CN(NC(=O)CC(=O)NN(C)C(=S)c1ccccc1)C(=S)c1ccccc1 [STA4783] (first compound 0.04 µM, partner dose 0.006 µM), for which the cell count in the test with WM115 was 78.5%; with WM1716, 60.5%; in the test on WM1745 it was 49.8%; in the test on WM3526 it was 89.9%; in the test on WM3619, 73.9%; with WM451Lu, 97.8%.

With `CC(C)C[C@H](NC(=O)[C@H](Cc1ccccc1)NC(=O)c1cnccn1)B(O)O` [Bortezomib] + COCC[n+]1c2c(n(Cc3cnccn3)c1C)C(=O)c1ccccc1C2=O [YM155] (first compound 0.001 µM, partner dose 0.0004 µM), the cell count with WM115 came to 91.6%; in the test with WM1716 it was 34.8%; in the test on WM1745, 89.6%; in the test with WM3526 it was 87.1%; with WM3619, 21.2%; with WM451Lu it was 57.6%.

For `CC(C)C[C@H](NC(=O)[C@H](Cc1ccccc1)NC(=O)c1cnccn1)B(O)O` [Bortezomib] + COc1cc2c(Oc3ccc4[nH]c(C)cc4c3F)ncnc2cc1OCCCN1CCCC1 [cediranib] (first compound 0.001 µM, partner dose 0.4 µM), the cell count was found to be 108% in the test with WM115; 36.8% in the test with WM1716; 62.7% in the test with WM1745; 41.8% with WM3526; 29.8% with WM3619; 111% in the test with WM451Lu.

For `Cn1c(=O)n(-c2ccc(C(C)(C)C#N)cc2)c2c3cc(-c4cnc5ccccc5c4)ccc3ncc21` + COc1cc2c(Oc3ccc4[nH]c(C)cc4c3F)ncnc2cc1OCCCN1CCCC1 [cediranib] (first compound 0.004 µM, partner dose 0.4 µM), the cell count in the test on WM115 is 92.2%; in the test on WM1716 it was 84.9%; in the test on WM1745 it was 108%; with WM3526, 110%; with WM3619, 114%; in the test with WM451Lu it was 88.9%.

For `Cn1c(=O)n(-c2ccc(C(C)(C)C#N)cc2)c2c3cc(-c4cnc5ccccc5c4)ccc3ncc21` + C=CCn1c(=O)c2cnc(Nc3ccc(N4CCN(C)CC4)cc3)nc2n1-c1cccc(C(C)(C)O)n1 [MK1775] (first compound 0.004 µM, partner dose 0.02 µM), the cell count with WM115 is 75.8%; in the test on WM1716 it was 61.6%; in the test with WM1745, 86.1%; in the test on WM3526, 83.2%; in the test on WM3619, 75.3%; in the test on WM451Lu, 101%.

With `Cc1cn(-c2cc(NC(=O)c3ccc(C)c(Nc4nccc(-c5cccnc5)n4)c3)cc(C(F)(F)F)c2)cn1` [nilotinib] + CC(=O)O[C@@]12CO[C@@H]1C[C@H](O)[C@@]1(C)C(=O)[C@H](O)C3=C(C)[C@@H](OC(=O)[C@H](O)[C@@H](NC(=O)OC(C)(C)C)c4ccccc4)C[C@@](O)([C@@H](OC(=O)c4ccccc4)[C@H]21)C3(C)C [Docetaxel] (first compound 0.2 µM, partner dose 0.0001 µM), the cell count with WM115 is 76.8%; in the test with WM1716, 54.7%; in the test with WM1745, 59.5%; in the test on WM3526 it was 35.7%; with WM3619, 64.7%; with WM451Lu it was 68.3%.

As for `COc1ccc(C2=N[C@@H](c3ccc(Cl)cc3)[C@@H](c3ccc(Cl)cc3)N2C(=O)N2CCNC(=O)C2)c(OC(C)C)c1` [Nutlin-3] + O=S(=O)(c1ccccc1)N(CC(F)(F)F)c1ccc(C(O)(C(F)(F)F)C(F)(F)F)cc1 [T0901317] (first compound 0.1 µM, partner dose 1.4 µM), the cell count in the test on WM115 was 101%; in the test with WM1716, 94.5%; with WM1745 it was 73.8%; with WM3526 it was 82.2%; with WM3619, 75.9%; with WM451Lu it was 157%.

`Cn1c(=O)n(-c2ccc(C(C)(C)C#N)cc2)c2c3cc(-c4cnc5ccccc5c4)ccc3ncc21` + C=C(c1ccc(C(=O)O)cc1)c1cc2c(cc1C)C(C)(C)CCC2(C)C [Bexarotene] (first compound 0.004 µM, partner dose 2 µM): the cell count with WM115 was determined as 92.5%; in the test on WM1716 it was 85.5%; in the test on WM1745 it was 91.4%; in the test on WM3526, 73.6%; in the test on WM3619, 104%; in the test on WM451Lu it was 84.6%.

As to `Cc1cc(Nc2cc(N3CCN(C)CC3)nc(/C=C/c3ccccc3)n2)n[nH]1` + Cn1c(Nc2ccc(C(F)(F)F)cc2)nc2cc(Oc3ccnc(-c4ncc(C(F)(F)F)[nH]4)c3)ccc21 [CHIR265] (first compound 0.04 µM, partner dose 0.08 µM), the cell count was 50% in the test on WM115; 77.4% in the test with WM1716; 79.4% with WM1745; 57.9% with WM3526; 72.9% in the test on WM3619; 96.1% in the test with WM451Lu.

For the molecule `Cc1cc(Nc2cc(N3CCN(C)CC3)nc(/C=C/c3ccccc3)n2)n[nH]1` + NC(=O)Nc1cc(-c2cccc(F)c2)sc1C(=O)N[C@H]1CCCNC1 [AZD7762] (first compound 0.04 µM, partner dose 0.02 µM), the cell count worked out at 89.8% in the test with WM115; 101% with WM1716; 93.7% with WM1745; 87.2% in the test with WM3526; 61.2% with WM3619; 87.7% in the test with WM451Lu.

Consider `CC(C)C[C@H](NC(=O)[C@H](Cc1ccccc1)NC(=O)c1cnccn1)B(O)O` [Bortezomib] + CCc1ccc(CCOc2ccc(CC3SC(=O)NC3=O)cc2)nc1 [pioglitazone] (first compound 0.001 µM, partner dose 2 µM), for which the cell count in the test on WM115 came out at 92.8%; with WM1716 it was 27.4%; in the test on WM1745 it was 60.6%; with WM3526, 82.3%; in the test on WM3619 it was 12%; in the test on WM451Lu, 106%.

Turning to `CC(C)C[C@H](NC(=O)[C@H](Cc1ccccc1)NC(=O)c1cnccn1)B(O)O` [Bortezomib] + CC1(C)NC(=O)N(c2ccc([N+](=O)[O-])c(C(F)(F)F)c2)C1=O [nilutamide] (first compound 0.001 µM, partner dose 1 µM), the cell count with WM115 amounted to 100%; in the test with WM1716, 29.6%; in the test with WM1745 it was 68.3%; with WM3526, 85.5%; with WM3619, 21.6%; in the test on WM451Lu it was 85.2%.

Regarding `Cc1cn(-c2cc(NC(=O)c3ccc(C)c(Nc4nccc(-c5cccnc5)n4)c3)cc(C(F)(F)F)c2)cn1` [nilotinib] + CNC(=O)c1cc(Oc2ccc(NC(=O)Nc3ccc(Cl)c(C(F)(F)F)c3)cc2)ccn1 [sorafenib] (first compound 0.2 µM, partner dose 0.4 µM), the cell count in the test with WM115 was found to be 106%; in the test with WM1716 it was 84.6%; with WM1745, 94.3%; with WM3526, 103%; in the test with WM3619, 109%; in the test on WM451Lu it was 101%.
